# Results taken from the supplement of paper PMC8728848.
# The list shows a part of the results.
# Legend:
# Assay in all cases: glycan array binding signal (z-score within array); higher = stronger binding
# Conditions in all cases: glycan notation: IUPAC condensed, linker removed
# [1] = target: GlcNAc(b1-3)Gal(b1-4)GlcNAc(b1-2)Man(a1-3)[GlcNAc(b1-3)Gal(b1-4)GlcNAc(b1-2)Man(a1-6)]Man(b1-4)GlcNAc(b1-4)GlcNAc
# Summary of the method: (§1)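 The binding signal is a Z-score computed within each array and averaged over linkers. Arrays of the same protein sequence at different concentrations or buffers were also averaged together. Data originate from 3228 arrays in the Consortium for Functional Glycomics database, kept only where the protein sequence was available.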
# [2] = target: GlcNAc(b1-3)Gal(b1-4)GlcNAc(b1-2)Man(a1-3)[GlcNAc(b1-3)Gal(b1-4)GlcNAc(b1-2)Man(a1-6)]Man(b1-4)GlcNAc(b1-4)[Fuc(a1-6)]GlcNAc
# Summary of the method: as §1
# [3] = target: GlcNAc(b1-3)Gal(b1-4)GlcNAc(b1-2)[GlcNAc(b1-3)Gal(b1-4)GlcNAc(b1-6)]Man(a1-6)[GlcNAc(b1-3)Gal(b1-4)GlcNAc(b1-2)Man(a1-3)]Man(b1-4)GlcNAc(b1-4)GlcNAc
# Summary of the method: as §1
# [4] = target: GlcNAc(b1-3)Gal(b1-4)GlcNAc(b1-3)Gal(b1-4)GlcNAc
# Summary of the method: as §1
# [5] = target: GlcNAc(b1-3)Gal(b1-4)GlcNAc(b1-3)Gal(b1-4)GlcNAc(b1-2)Man(a1-3)[GlcNAc(b1-3)Gal(b1-4)GlcNAc(b1-3)Gal(b1-4)GlcNAc(b1-2)Man(a1-6)]Man(b1-4)GlcNAc(b1-4)GlcNAc
# Summary of the method: as §1
# [6] = target: GlcNAc(b1-3)Gal(b1-4)GlcNAc(b1-3)Gal(b1-4)GlcNAc(b1-2)Man(a1-3)[GlcNAc(b1-3)Gal(b1-4)GlcNAc(b1-3)Gal(b1-4)GlcNAc(b1-2)Man(a1-6)]Man(b1-4)GlcNAc(b1-4)[Fuc(a1-6)]GlcNAc
# Summary of the method: as §1
# [7] = target: GlcNAc(b1-3)Gal(b1-4)GlcNAc(b1-3)Gal(b1-4)GlcNAc(b1-2)[GlcNAc(b1-3)Gal(b1-4)GlcNAc(b1-3)Gal(b1-4)GlcNAc(b1-6)]Man(a1-6)[GlcNAc(b1-3)Gal(b1-4)GlcNAc(b1-3)Gal(b1-4)GlcNAc(b1-2)Man(a1-3)]Man(b1-4)GlcNAc(b1-4)[Fuc(a1-6)]GlcNAc
# Summary of the method: as §1
# [8] = target: GlcNAc(b1-3)Gal(b1-4)GlcNAc(b1-3)Gal(b1-4)GlcNAc(b1-3)Gal(b1-4)GlcNAc(b1-2)Man(a1-3)[GlcNAc(b1-3)Gal(b1-4)GlcNAc(b1-3)Gal(b1-4)GlcNAc(b1-3)Gal(b1-4)GlcNAc(b1-2)Man(a1-6)]Man(b1-4)GlcNAc(b1-4)GlcNAc
# Summary of the method: as §1
# [9] = target: GlcNAc(b1-3)Gal(b1-4)GlcNAc(b1-3)Gal(b1-4)GlcNAc(b1-3)Gal(b1-4)GlcNAc(b1-2)Man(a1-3)[GlcNAc(b1-3)Gal(b1-4)GlcNAc(b1-3)Gal(b1-4)GlcNAc(b1-3)Gal(b1-4)GlcNAc(b1-2)Man(a1-6)]Man(b1-4)GlcNAc(b1-4)[Fuc(a1-6)]GlcNAc
# Summary of the method: as §1
# [10] = target: GlcNAc(b1-3)Gal(b1-4)GlcNAc(b1-3)Gal(b1-4)GlcNAc(b1-3)Gal(b1-4)GlcNAc(b1-2)[GlcNAc(b1-3)Gal(b1-4)GlcNAc(b1-3)Gal(b1-4)GlcNAc(b1-3)Gal(b1-4)GlcNAc(b1-6)]Man(a1-6)[GlcNAc(b1-3)Gal(b1-4)GlcNAc(b1-3)Gal(b1-4)GlcNAc(b1-3)Gal(b1-4)GlcNAc(b1-2)Man(a1-3)]Man(b1-4)GlcNAc(b1-4)[Fuc(a1-6)]GlcNAc
# Summary of the method: as §1
# [11] = target: GlcNAc(b1-3)Gal(b1-4)GlcNAc(b1-3)Gal(b1-4)GlcNAc(b1-3)Gal(b1-4)GlcNAc(b1-3)Gal(b1-4)GlcNAc(b1-2)Man(a1-3)[GlcNAc(b1-3)Gal(b1-4)GlcNAc(b1-3)Gal(b1-4)GlcNAc(b1-3)Gal(b1-4)GlcNAc(b1-3)Gal(b1-4)GlcNAc(b1-2)Man(a1-6)]Man(b1-4)GlcNAc(b1-4)GlcNAc
# Summary of the method: as §1
# [12] = target: GlcNAc(b1-3)Gal(b1-4)GlcNAc(b1-3)Gal(b1-4)GlcNAc(b1-3)Gal(b1-4)GlcNAc(b1-3)Gal(b1-4)GlcNAc(b1-2)Man(a1-3)[GlcNAc(b1-3)Gal(b1-4)GlcNAc(b1-3)Gal(b1-4)GlcNAc(b1-3)Gal(b1-4)GlcNAc(b1-3)Gal(b1-4)GlcNAc(b1-2)Man(a1-6)]Man(b1-4)GlcNAc(b1-4)[Fuc(a1-6)]GlcNAc
# Summary of the method: as §1
# [13] = target: GlcNAc(b1-3)Gal(b1-4)GlcNAc(b1-3)Gal(b1-4)GlcNAc(b1-3)Gal(b1-4)GlcNAc(b1-3)Gal(b1-4)GlcNAc(b1-2)[GlcNAc(b1-3)Gal(b1-4)GlcNAc(b1-3)Gal(b1-4)GlcNAc(b1-3)Gal(b1-4)GlcNAc(b1-3)Gal(b1-4)GlcNAc(b1-6)]Man(a1-6)[GlcNAc(b1-3)Gal(b1-4)GlcNAc(b1-3)Gal(b1-4)GlcNAc(b1-3)Gal(b1-4)GlcNAc(b1-3)Gal(b1-4)GlcNAc(b1-2)Man(a1-3)]Man(b1-4)GlcNAc(b1-4)[Fuc(a1-6)]GlcNAc
# Summary of the method: as §1
# [14] = target: GlcNAc(b1-3)Gal(b1-4)GlcNAc(b1-3)Gal(b1-4)GlcNAc(b1-3)GalNAc
# Summary of the method: as §1
# [15] = target: GlcNAc(b1-3)Gal(b1-4)GlcNAc(b1-3)GalNAc
# Summary of the method: as §1
# [16] = target: GlcNAc(b1-3)Gal(b1-4)GlcNAc(b1-3)[GlcNAc(b1-3)Gal(b1-4)GlcNAc(b1-3)]GalNAc
# Summary of the method: as §1
# [17] = target: GlcNAc(b1-3)Gal(b1-4)GlcNAc(b1-6)[Gal(b1-3)]GalNAc
# Summary of the method: as §1
# [18] = target: GlcNAc(b1-3)Gal(b1-4)GlcNAc(b1-6)[GlcNAc(b1-3)Gal(b1-3)]GalNAc
# Summary of the method: as §1
# [19] = target: GlcNAc(b1-3)Gal(b1-4)GlcNAc(b1-6)[GlcNAc(b1-3)]Gal(b1-4)GlcNAc
# Summary of the method: as §1
# GlcNAc(b1-3)GalNAc = target: GlcNAc(b1-3)GalNAc
# Summary of the method: as §1
# GlcNAc(b1-3)Man = target: GlcNAc(b1-3)Man
# Summary of the method: as §1
# [20] = target: GlcNAc(b1-3)[GlcNAc(b1-4)][GlcNAc(b1-6)]GlcNAc
# Summary of the method: as §1
# [21] = target: GlcNAc(b1-3)[GlcNAc(b1-6)]Gal(b1-4)GlcNAc
# Summary of the method: as §1
# [22] = target: GlcNAc(b1-3)[GlcNAc(b1-6)]GalNAc
# Summary of the method: as §1
# [23] = target: GlcNAc(b1-3)[GlcNAc(b1-6)]GlcNAc
# Summary of the method: as §1
# [24] = target: GlcNAc(b1-3)[GlcNAc(b1-6)]GlcNAc(b1-4)GlcNAc
# Summary of the method: as §1
# [25] = target: GlcNAc(b1-4)Gal(b1-4)GlcNAc
# Summary of the method: as §1
# GlcNAc(b1-4)GlcNAc = target: GlcNAc(b1-4)GlcNAc
# Summary of the method: as §1
# [26] = target: GlcNAc(b1-4)GlcNAc(b1-4)GlcNAc
# Summary of the method: as §1
# [27] = target: GlcNAc(b1-4)GlcNAc(b1-4)GlcNAc(b1-4)GlcNAc(b1-4)GlcNAc
# Summary of the method: as §1
# [28] = target: GlcNAc(b1-4)GlcNAc(b1-4)GlcNAc(b1-4)GlcNAc(b1-4)GlcNAc(b1-4)GlcNAc
# Summary of the method: as §1
# [29] = target: GlcNAc(b1-4)[GlcNAc(b1-6)]GalNAc
# Summary of the method: as §1
# [30] = target: GlcNAc(b1-6)Gal(b1-4)GlcNAc
# Summary of the method: as §1
# GlcNAc(b1-6)GalNAc = target: GlcNAc(b1-6)GalNAc
# Summary of the method: as §1
# [31] = target: GlcNAc6S(b1-3)Gal(b1-4)GlcNAc
# Summary of the method: as §1
# Kdn(a2-3)Gal(b1-3)GalNAc = target: Kdn(a2-3)Gal(b1-3)GalNAc
# Summary of the method: as §1
# Kdn(a2-3)Gal(b1-3)GlcNAc = target: Kdn(a2-3)Gal(b1-3)GlcNAc
# Summary of the method: as §1
binder,measurement,setting,value
"UEA-I (Ulex europaeus), P22972 (protein) SDDLSFKFKNFSQNGKDLSFQGDASVIETGVLQLNKVGNNLPDETGGIARYIAPIHIWNCNTGEVASFITSFSFFMETSANPKAATDGLTFFLAPPDSPLRRAGGYFGLFEDTKDNDSSYQTVAVEFDTIGSPVNFDDPGFPHIGIDVNRVKSINAERWNKRYGLNNVANVEIIYEASSKTLTASLTYPSDQTSISVTSIVDLKEILPEWVSVGFSGGTYIGRQATHEVLNWYFTSNLINTNS",glycan array binding signal (z-score),[1],-0.128
same,glycan array binding signal (z-score),[2],0.025
same,glycan array binding signal (z-score),[3],-0.035
same,glycan array binding signal (z-score),[4],-0.21
same,glycan array binding signal (z-score),[5],0.226
same,glycan array binding signal (z-score),[6],-0.122
same,glycan array binding signal (z-score),[7],-0.152
same,glycan array binding signal (z-score),[8],-0.196
same,glycan array binding signal (z-score),[9],0.034
same,glycan array binding signal (z-score),[10],-0.143
same,glycan array binding signal (z-score),[11],-0.054
same,glycan array binding signal (z-score),[12],-0.137
same,glycan array binding signal (z-score),[13],-0.181
same,glycan array binding signal (z-score),[14],-0.201
same,glycan array binding signal (z-score),[15],-0.237
same,glycan array binding signal (z-score),[16],-0.162
same,glycan array binding signal (z-score),[17],-0.246
same,glycan array binding signal (z-score),[18],-0.232
same,glycan array binding signal (z-score),[19],-0.021
same,glycan array binding signal (z-score),GlcNAc(b1-3)GalNAc,-0.172
same,glycan array binding signal (z-score),GlcNAc(b1-3)Man,-0.085
same,glycan array binding signal (z-score),[20],-0.184
same,glycan array binding signal (z-score),[21],-0.266
same,glycan array binding signal (z-score),[22],-0.17
same,glycan array binding signal (z-score),[23],-0.086
same,glycan array binding signal (z-score),[24],-0.258
same,glycan array binding signal (z-score),[25],-0.268
same,glycan array binding signal (z-score),GlcNAc(b1-4)GlcNAc,0.114
same,glycan array binding signal (z-score),[26],0.185
same,glycan array binding signal (z-score),[27],0.241
same,glycan array binding signal (z-score),[28],0.202
same,glycan array binding signal (z-score),[29],-0.231
same,glycan array binding signal (z-score),[30],-0.171
same,glycan array binding signal (z-score),GlcNAc(b1-6)GalNAc,-0.189
same,glycan array binding signal (z-score),[31],-0.197
same,glycan array binding signal (z-score),Kdn(a2-3)Gal(b1-3)GalNAc,-0.152
same,glycan array binding signal (z-score),Kdn(a2-3)Gal(b1-3)GlcNAc,-0.222
